Reference: the antibiotic and cytotoxicity screens of Wong et al. (2023)
The list shows a part of the results.

Experiments:
HSkMC = human skeletal muscle cells; assay: cytotoxicity call (relative viability < 0.9); conditions: 10 µM
HepG2 = assay: cytotoxicity call (relative viability < 0.9); conditions: 10 µM
S. aureus RN4220 = assay: growth inhibition call (relative growth <= 0.2); conditions: 50 µM

Row | Compound | cytotoxicity call (HSkMC) | cytotoxicity call (HepG2) | growth inhibition call (S. aureus RN4220)
1 | CC(C)C#Cc1ccc2c(c1)O[C@H](CN(C)C(=O)Cc1ccccn1)[C@@H](C)CN([C@H](C)CO)S2(=O)=O | inactive | inactive | inactive
2 | C[C@H](CO)N1C[C@H](C)[C@H](CN(C)C(=O)CCCN(C)C)OCc2cnnn2CCCC1=O | inactive | inactive | inactive
3 | Cc1ccc(-c2ccc3c(c2)O[C@H](CN(C)Cc2cncnc2)[C@@H](C)CN([C@H](C)CO)S3(=O)=O)cc1 | inactive | inactive | inactive
4 | COc1ccc(NC(=O)Nc2ccc3c(c2)C(=O)N([C@H](C)CO)C[C@H](C)[C@@H](CN(C)Cc2ccncc2)OCCCC[C@H](C)O3)cc1 | inactive | inactive | inactive
5 | Cc1ccc(S(=O)(=O)Nc2ccc3c(c2)C(=O)N([C@@H](C)CO)C[C@H](C)[C@H](CN(C)S(=O)(=O)c2ccc(C)cc2)OCCCC[C@H](C)O3)cc1 | inactive | active | inactive
6 | COc1ccc(S(=O)(=O)N2C[C@H](O)COC[C@@H]3O[C@@H](CC(=O)NCCCN4CCOCC4)CC[C@H]32)cc1 | inactive | inactive | inactive
7 | COc1ccccc1C(=O)Nc1ccc2c(c1)C(=O)N(C)[C@H]1CC[C@@H](CC(=O)NCc3ccc(Cl)c(Cl)c3)O[C@@H]1CO2 | active | active | inactive
8 | CS(=O)(=O)N[C@H]1CCN(c2ccccn2)C1 | inactive | inactive | inactive
9 | N[C@H](Cc1ccccc1)C(=O)O | inactive | inactive | inactive
10 | CC(C)N1CC[C@H](CNCc2ccc(Oc3ccccc3)cc2)Oc2c(NC(=O)c3ccncc3)cccc2C1=O | inactive | inactive | inactive
11 | C[C@@H]1CCCCO[C@@H](CN(C)C(=O)CCC(F)(F)F)[C@H](C)CN([C@@H](C)CO)C(=O)c2cc(NC(=O)Cc3ccccc3)ccc2O1 | inactive | inactive | inactive
12 | O=C(Nc1ccc2c(c1)[C@@H]1C[C@H](CC(=O)N3CCc4ccccc4C3)O[C@H](CO)[C@@H]1O2)C1CCOCC1 | inactive | inactive | inactive
13 | C[C@H]1CN([C@@H](C)CO)C(=O)Cc2cc(NC(=O)C3CCCCC3)ccc2O[C@@H]1CN(C)S(=O)(=O)c1cn(C)cn1 | inactive | inactive | inactive
14 | CO[C@@H]1CN(C)C(=O)c2cc(NS(=O)(=O)CC(F)(F)F)ccc2OC[C@H](C)N(Cc2nccs2)C[C@H]1C | inactive | inactive | inactive
15 | Cn1cnc(S(=O)(=O)N2C[C@H](O)COC[C@H]3O[C@H](CC(=O)NCc4cc(F)cc(F)c4)CC[C@@H]32)c1 | inactive | inactive | inactive
16 | CN1C(=O)c2cc(NC(=O)c3cscn3)ccc2OC[C@@H]2O[C@@H](CC(=O)N3CCOCC3)CC[C@@H]21 | inactive | inactive | inactive
17 | CC(C)NC(=O)Nc1ccc2c(c1)CC(=O)N([C@H](C)CO)C[C@@H](C)[C@@H](CN(C)C(=O)Nc1ccc3c(c1)OCO3)O2 | inactive | inactive | inactive
18 | Cc1cc(NN)nc(SCC(=O)NN)n1 | inactive | inactive | inactive
19 | CCN1C[C@]23CN(C(=O)c4cnccn4)C[C@@H](C[C@H]2S1(=O)=O)O3 | inactive | inactive | inactive
20 | C[C@H]1CN([C@@H](C)CO)C(=O)Cc2cc(NS(=O)(=O)c3cn(C)cn3)ccc2O[C@H]1CN(C)C(=O)Nc1ccc(F)cc1 | inactive | inactive | inactive
21 | C[C@@H]1CN([C@@H](C)CO)C(=O)c2cc(NC(=O)Nc3ccc4c(c3)OCO4)ccc2O[C@H]1CN(C)C(=O)Nc1ccc(C(F)(F)F)cc1 | inactive | inactive | inactive
22 | COCC#Cc1cnc2c(c1)C(=O)N([C@@H](C)CO)C[C@@H](C)[C@H](CN(C)S(=O)(=O)c1ccccc1)O2 | inactive | inactive | inactive
23 | Cc1noc(C)c1S(=O)(=O)N(C)C[C@H]1Oc2ccc(NC(=O)C3CC3)cc2CC(=O)N([C@H](C)CO)C[C@H]1C | inactive | inactive | inactive
24 | CS(=O)(=O)N1CC(=O)Nc2ccccc21 | inactive | inactive | inactive
25 | C[C@H](CO)N1C[C@H](C)[C@@H](CN(C)Cc2ccc(Cl)c(Cl)c2)OCCCC[C@H](C)Oc2ccc(N(C)C)cc2C1=O | inactive | inactive | inactive
26 | C/C=C(/C)C(=O)O[C@H]1[C@@H](OC(C)=O)[C@@]2(CO)[C@@H](O)C[C@@]3(C)C(=CC[C@H]4[C@@]5(C)CC[C@@H](O[C@H]6O[C@H](C(=O)O)[C@@H](O[C@H]7O[C@@H](CO)[C@@H](O)[C@@H](O)[C@@H]7O)[C@@H](O)[C@@H]6O[C@H]6O[C@@H](CO)[C@@H](O)[C@@H](O)[C@@H]6O)[C@@](C)(CO)[C@@H]5CC[C@]43C)[C@@H]2CC1(C)C | active | active | inactive
